± gives the standard error. This sample is rich in variants without activity.
B1: glmS ribozyme (parent)
chain: AUAAAAGCGCCAGAACUACAGAAAUGUAGUUGACGAGGAGGAGGUUUAUCGAAUUUUCGGCGGAUGCCUCCAAA

Tests used:
Settings in all cases: with glucosamine-6-phosphate
glucosamine-6-phosphate [1] = variants of: B1; experiment: self-cleavage kobs at 640 uM GlcN6P; higher = faster cleavage; RNA array
Method in brief: (§1)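 Sequenced MiSeq chips were the platform: E. coli RNA polymerase transcribed barcoded ribozyme variants on them in situ, and a hybridised Cy3 probe tracked these at 37 °C. After glucosamine-6-phosphate (40 μM to 10 mM) in HEPES/KCl/Mg(OAc)2 buffer was flowed in, tiles were imaged over ~14 h. Signals normalised to baseline and to non-cleaving reference variants were reduced to per-tile medians and fit to one- or two-exponential decays to obtain kobs. kcat and KM were derived through weighted Michaelis–Menten fits across concentrations.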

glucosamine-6-phosphate [2] = variants of: B1; experiment: self-cleavage kobs at 160 uM GlcN6P; higher = faster cleavage; RNA array
Method in brief: as §1

glucosamine-6-phosphate [3] = variants of: B1; experiment: self-cleavage kobs at 2500 uM GlcN6P; higher = faster cleavage; RNA array
Method in brief: as §1

glucosamine-6-phosphate [4] = variants of: B1; experiment: self-cleavage kobs at 10000 uM GlcN6P; higher = faster cleavage; RNA array
Method in brief: as §1

Row | Variant | self-cleavage kobs at 640 uM GlcN6P (glucosamine-6-phosphate [1]) [s⁻¹] | self-cleavage kobs at 160 uM GlcN6P (glucosamine-6-phosphate [2]) [s⁻¹] | self-cleavage kobs at 2500 uM GlcN6P (glucosamine-6-phosphate [3]) [s⁻¹] | self-cleavage kobs at 10000 uM GlcN6P (glucosamine-6-phosphate [4]) [s⁻¹]
1 | A39G G40U C58G | < 1e-05 |  |  | 
2 | C58G C70A | 4.04e-05 ± 1.9e-05 | 0.000411 ± 0.00017 | 5.93e-05 ± 1.4e-05 | 
3 | U55G G60C |  | < 1e-05 |  | 
4 | C11U A12C G43C |  | < 1e-05 | < 1e-05 | 
5 | A6U U45G G63A |  |  | < 1e-05 | 
6 | G7C G37C G40U |  |  | < 1e-05 | 
7 | G40A U57G C67G | < 1e-05 |  | < 1e-05 | 
8 | C10A G13C U45A G51C |  | < 1e-05 |  | 
9 | A15G C16U A33U A39G |  | < 1e-05 |  | 
10 | C16A U46A U55A |  | < 1e-05 |  | 
11 | A6C C61U G62U |  |  | < 1e-05 | 
12 | A42U G60C | < 1e-05 | < 1e-05 |  | < 1e-05
13 | G37C G43C | < 1e-05 | < 1e-05 | < 1e-05 | < 1e-05
14 | A48G U49A | < 1e-05 |  |  | < 1e-05
15 | A39G G41C U46G A64U |  | < 1e-05 |  | 
16 | A36G A48C C50U | < 1e-05 |  |  | 
17 | G9C G38C |  | < 1e-05 |  | 
18 | G37C G59C | < 1e-05 |  | < 1e-05 | < 1e-05
19 | A14U U49G A53U U69G |  | 8.99e-05 ± 3.4e-05 | 7.58e-05 ± 2.1e-05 | 
20 | C11A U56G C58U |  | < 1e-05 |  | 
21 | G7C A14U G32U A36G G43C |  |  | < 1e-05 | 
22 | U49G G51A A52G G60C | < 1e-05 |  |  | 

Row | Variant | self-cleavage kobs at 640 uM GlcN6P (glucosamine-6-phosphate [1]) [s⁻¹] | self-cleavage kobs at 160 uM GlcN6P (glucosamine-6-phosphate [2]) [s⁻¹] | self-cleavage kobs at 2500 uM GlcN6P (glucosamine-6-phosphate [3]) [s⁻¹] | self-cleavage kobs at 10000 uM GlcN6P (glucosamine-6-phosphate [4]) [s⁻¹]
23 | A6G C70G |  | < 1e-05 |  | 
24 | G38A A64C | < 1e-05 | < 1e-05 |  | < 1e-05
25 | A39U U57G |  | < 1e-05 |  | 
26 | U46G G63A | < 1e-05 | < 1e-05 | < 1e-05 | 
27 | U30C U31C C67U |  | < 1e-05 |  | 
28 | U55G U65C C70U | 0.00017 ± 3.7e-05 |  | 0.000458 ± 0.00012 | 
29 | A6U G9A U49C |  | < 1e-05 |  | 
30 | C34U U46G U65A |  | < 1e-05 |  | 
31 | G9A C11A A12C A14U |  | < 1e-05 | < 1e-05 | 
32 | G40C G62C |  | < 1e-05 | < 1e-05 | < 1e-05
33 | C11G A14G G29A |  | < 1e-05 |  | 
34 | G37U U57C G59C U69G | < 1e-05 |  |  | 
35 | G37C G40C A42C | < 1e-05 | < 1e-05 | < 1e-05 | 
36 | G13A C58G G59U |  | < 1e-05 |  | 
37 | U45C A48U |  | < 1e-05 |  | 
38 | G43A G66C | < 1e-05 | < 1e-05 |  | 
39 | U45A A48C C71A |  | < 1e-05 |  | 
40 | C11A U31C U57A |  | < 1e-05 |  | 
41 | A36G G38U G44C |  | < 1e-05 |  | 
42 | C58G C68A U69G | 0.000107 ± 3.5e-05 |  | 5.37e-05 ± 2.4e-05 | 
43 | G38U A39G G60C C68A | < 1e-05 |  | < 1e-05 | 
44 | G43C A53U | < 1e-05 | < 1e-05 | < 1e-05 | < 1e-05

Row | Variant | self-cleavage kobs at 640 uM GlcN6P (glucosamine-6-phosphate [1]) [s⁻¹] | self-cleavage kobs at 160 uM GlcN6P (glucosamine-6-phosphate [2]) [s⁻¹] | self-cleavage kobs at 2500 uM GlcN6P (glucosamine-6-phosphate [3]) [s⁻¹] | self-cleavage kobs at 10000 uM GlcN6P (glucosamine-6-phosphate [4]) [s⁻¹]
45 | U45A C50A A53G |  | < 1e-05 |  | 
46 | G9U A14U G35U |  | < 1e-05 | < 1e-05 | 
47 | A6U C58A C67A |  |  | < 1e-05 | 
48 | C34U G43U C50A G51U U55G |  | < 1e-05 |  | 
49 | A6C C8G G35C C58U C67G |  | < 1e-05 | < 1e-05 | 
50 | G43C U56A | < 1e-05 | < 1e-05 | < 1e-05 | < 1e-05
51 | A12U U45C A53G U57G |  | < 1e-05 |  | 
52 | U45G G60A | < 1e-05 | < 1e-05 | < 1e-05 | 
53 | G37A A42C G51C | < 1e-05 |  |  | 
54 | G41U G60C C71G |  | < 1e-05 | < 1e-05 | 
55 | G38U G41U G43C G51A G66A | < 1e-05 |  |  | 
56 | G9C G32C A33C A39G C61A |  | < 1e-05 | < 1e-05 | 
57 | A6C C68U |  |  | 3.96e-05 ± 9.1e-06 | 4.19e-05 ± 6.8e-06
58 | A53G U55A G66U | 0.000436 ± 9.4e-05 | 0.000163 ± 4.6e-05 | 0.000351 ± 0.00011 | 
59 | A53U U57G C58G G60C G66A |  | < 1e-05 | < 1e-05 | 
60 | A39C C61G | < 1e-05 | < 1e-05 | < 1e-05 | < 1e-05
61 | A64C U69C |  | < 1e-05 |  | 
62 | A53C C67G C71G | < 1e-05 |  |  | 
63 | U54G U55C U56G G59C U69G | 0.000119 ± 4.3e-05 |  | 6.83e-05 ± 2.7e-05 | 
64 | A6G G38U A53U |  |  | < 1e-05 | 
